According to PubChem BioAssay AID1508624 (National Center for Advancing Translational Sciences (NCATS), 2021):
About 120 (0.25%) of roughly 48,000 compounds were called active. Another 4% or so got no clear call; they are omitted. The call rests on the fitted dose curve; in most records, active means well fitted activation curve with a large enough effect; inconclusive means small, poorly fitted or top-dose-only effect, or another doubt; inactive means no such curve, though single readings can be large or run the other way. This is one part of the list.

assay: Primary qHTS for Identification of Small Molecule Activators of Huntingtin-Antisense Promoter Activity; details: HEK293 HTT-AS promoter firefly luciferase reporter (activity 0% = vehicle and -100% = no light), 24 h; series mostly up to 57.5 µM; activity change, positive = activation: at the top concentration; further: nearly all actives have a fitted effect of over 55% in size
Summary of the method: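 Luminescence was read after Dual-Glo reagent and a 10 min room-temperature incubation. Values were normalized to vehicle (0% activity) and zero RLU (-100% activity). Reporter HEK293 cells had been exposed to compounds (up to 57.5 uM final) for 24 h.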

Activity change, positive = activation, inactive:
CC(C)Oc1ccc(CNC(=O)C(C)n2ccc3cc(S(=O)(=O)N4CCCCCC4)ccc32)cc1 (stereo not drawn) -23.1%
COc1ccccc1NC(=O)c1cc2c(-c3ccccc3)nn(-c3ccccc3)c2s1 -14.7%
CCc1ccccc1NC(=O)Cn1c(=O)n(C(C)C)c(=O)c2oc3ccccc3c21 -8.35%
CCN(CC)C(=O)Cn1c(SCC(=O)Nc2ccc(F)cc2)nc2ccccc21 -16.5%
Cc1noc(Cn2c(=O)c3ccccc3n(CC(=O)Nc3cc(Cl)ccc3C)c2=O)n1 -8.07%
CCOC(=O)c1[nH]c2ccccc2c1NC(=O)c1ccc(C)c(C)c1 0.582%
O=C(CSc1n[nH]c(-c2ccccc2)n1)N1CCN(c2ccc(F)cc2)CC1 -15.5%
Cc1ccc(-c2nnc(Nc3ccc(OCC(N)=O)cc3)c3ccccc23)cc1S(=O)(=O)NCC1CCCO1 (stereo not drawn) -3.92%
O=C(CCn1cnc2onc(-c3ccc(F)cc3)c2c1=O)Nc1cccc(C(F)(F)F)c1 -59.2%
O=C(O)C(S)C(S)C(=O)O (stereo not drawn) 0.668%
Cc1ccc(-n2c(=O)c3c(cnn3C)n(CC(=O)Nc3cccc(Cl)c3)c2=O)cc1 -18.7%
CCC(C(=O)NCCc1ccc(OC)c(OC)c1OC)n1nc(C)c2sc3ccccc3c2c1=O (stereo not drawn) -34.7%
Cc1ccc(CNC(=O)C2CCN(C(=O)N3CC(C)Oc4ccc(Cl)cc43)CC2)cc1 (stereo not drawn) -19.1%
CCn1nc(C(=O)O)c(=O)c2cc3c(cc21)OCO3 -5.24%
Cc1ccc(CSc2nc3ccccc3c3nc(CCn4c(C)nc5ccccc54)nn23)cc1 2.25%
CCc1ccccc1NC(=O)CCn1cccn1 -10.9%
Cc1cc(C)cc(NC(=O)C(C)N2Cc3ccccc3C2=O)c1 (stereo not drawn) 1.41%
Cc1ccc(C)c(N2CCN(CCCNC(=O)c3cnn(-c4cccc(Cl)c4)c3C3CCN(C(=O)OC(C)(C)C)CC3)CC2)c1 -62.4%
Cc1cc(C)cc(NC(=O)NCc2noc3ccccc23)c1 -11.6%
CCC(=O)N1CCCc2cc(S(=O)(=O)N3CCC(C(=O)NC4CCC(C)CC4)CC3)ccc21 (stereo not drawn) -18.8%
CCOc1ccccc1C(=O)Nc1cccc(-c2nc3ccccc3s2)c1 14%
COc1ccc(-c2cn3c(n2)sc2cc(C(=O)NCCc4ccccc4)ccc23)cc1 5.69%
COc1ccccc1/C=C/c1nc(C#N)c(NCc2ccccc2)o1 7.91%
Cc1ccc(C)c(NC(=O)c2cnc(N3CCCC3)nc2C)c1 -7.51%
Cc1cc(CS(=O)(=O)c2ccccc2)cc(OCc2ccc(CN3CCC[C@H]3CO)cc2)c1 -2.27%
O=C(OCc1cc(=O)n2nc(C3CC3)sc2n1)c1cccc(NC(=O)c2ccccc2Cl)c1 -0.92%
COc1ccc(-n2ncc(C(=O)NCc3cccs3)c2C2CCN(C(=O)OC(C)(C)C)CC2)cc1 -12.5%
Cc1cccc(CNC(=O)C2CCN(c3nn4cc(-c5ccc(F)cc5)nc4s3)CC2)c1 28.4%
CCc1ccccc1N(CC)C(=O)c1cc2c(s1)-c1ccccc1SC2 -26.1%
COCCOC(=O)C1=C(C)NC(C)=C(C(=O)OC/C=C/c2ccccc2)C1c1cccc([N+](=O)[O-])c1 (stereo not drawn) -35.7%
O=C(Cc1ccc(Cl)cc1)NC1CC(=O)N(c2ccc3c(c2)OCCO3)C1 (stereo not drawn) -9.75%
Cc1cc(=O)n2nc(N3CCC(C(=O)Nc4ccc(Br)c(C)c4)CC3)sc2n1 -7.94%
O=S1(=O)OC(c2ccc(O)cc2)(c2ccc(O)cc2)c2ccccc21 -26.3%
COCCNC(=O)c1ccc(Cn2c(SCC(N)=O)nc3ccccc3c2=O)cc1 -17.6%
Cn1c(SCc2ccc(F)cc2)nc2ccc(C(=O)NCc3cccc(Cl)c3)cc21 -23.3%
CCOc1ccccc1C(=O)NCc1ccc2c(c1)CCN2C(=O)c1ccc(F)cc1 -1.69%
COc1ccc2c(CNC3CCC(C)CC3)c(C(=O)O)n(Cc3ccc(F)cc3)c2c1 (stereo not drawn) -23.2%
COc1cccc(OCCSc2nc3ccccc3n2CC(=O)N2CCOCC2)c1 -18.7%
Cc1ccc(N(Cc2cccs2)C(=O)c2ccc(OC(C)C)cc2)cc1 -19.7%
COc1ccc(-c2noc(CN(C(=O)c3ccc(C)cc3C)C(C)C)n2)cc1 -20.8%
CCOC(=O)c1ccccc1NC(=O)CSc1ccc(-c2sc(C)nc2C)nn1 -27.7%
Cc1ccc(C(=O)NCCc2csc(-c3cccc(F)c3)n2)cc1C -9.36%
CCN(C(=O)c1c(C)oc2ncnc(N3CCCCC3)c12)c1cc(C)ccc1C -6.53%
COc1ccc(C2CC(=O)Nc3c2c(C)nn3-c2nncc(-c3ccccc3)n2)c(OC)c1OC (stereo not drawn) -20.6%
COc1cc2nc(NCCc3cccc(C)c3)n3nc(-c4ccccc4)nc3c2cc1OC -2.61%
CCOC(=O)c1cccc(NC(=O)COc2ccc3c(C)cc(=O)oc3c2)c1 8.31%
CCOC(=O)c1cnc2c(ccc3ccccc32)c1Nc1ccccc1O 3.26%
COc1ccc(CNC(=O)C2CCN(S(=O)(=O)c3cccc(-c4noc(C)n4)c3)CC2)cc1 -17.9%
